Source: the supplement of paper PMC8728848
This is one part of the list.

Columns and labels:
Assay in all cases: glycan array binding signal (z-score within array); higher = stronger binding
Conditions in all cases: glycan notation: IUPAC condensed, linker removed
[1] = target: Man(a1-2)Man(a1-3)[Man(a1-2)Man(a1-6)]Man
Method in brief: (§1)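 Glycan array data came from 3228 arrays in the Consortium for Functional Glycomics database, and only arrays with an available protein sequence were kept. Glycan names were put into IUPAC-condensed notation, and columns mapping to the same glycan were averaged. The binding signal is a within-array Z-score, averaged across arrays of one protein sequence run at different concentrations or buffers and across linkers. A negative Z-score can be read as non-binding.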

[2] = target: Man(a1-2)Man(a1-3)[Man(a1-2)Man(a1-6)]Man(a1-6)[Man(a1-2)Man(a1-2)Man(a1-3)]Man
Method in brief: as §1

[3] = target: Man(a1-2)Man(a1-3)[Man(a1-2)Man(a1-6)]Man(a1-6)[Man(a1-2)Man(a1-2)Man(a1-3)]Man(b1-4)GlcNAc(b1-4)GlcNAc
Method in brief: as §1

[4] = target: Man(a1-2)Man(a1-3)[Man(a1-6)]Man(a1-6)[Man(a1-2)Man(a1-3)]Man(b1-4)GlcNAc(b1-4)GlcNAc
Method in brief: as §1

[5] = target: Man(a1-2)Man(a1-6)[Man(a1-3)]Man(a1-6)[Man(a1-2)Man(a1-2)Man(a1-3)]Man
Method in brief: as §1

[6] = target: Man(a1-2)Man(a1-6)[Man(a1-3)]Man(a1-6)[Man(a1-2)Man(a1-2)Man(a1-3)]Man(b1-4)GlcNAc(b1-4)GlcNAc
Method in brief: as §1

Man(a1-3)[Man(a1-6)]Man = target: Man(a1-3)[Man(a1-6)]Man
Method in brief: as §1

[7] = target: Man(a1-3)[Man(a1-6)]Man(a1-6)[Man(a1-2)Man(a1-3)]Man(b1-4)GlcNAc(b1-4)GlcNAc
Method in brief: as §1

[8] = target: Man(a1-3)[Man(a1-6)]Man(a1-6)[Man(a1-3)]Man
Method in brief: as §1

[9] = target: Man(a1-3)[Man(a1-6)]Man(a1-6)[Man(a1-3)]Man(b1-4)GlcNAc(b1-4)GlcNAc
Method in brief: as §1

[10] = target: Man(a1-3)[Man(a1-6)]Man(b1-4)GlcNAc(b1-4)GlcNAc
Method in brief: as §1

[11] = target: Man(a1-3)[Man(a1-6)]Man(b1-4)GlcNAc(b1-4)[Fuc(a1-6)]GlcNAc
Method in brief: as §1

Man(a1-6)Man = target: Man(a1-6)Man
Method in brief: as §1

Man(b1-4)GlcNAc = target: Man(b1-4)GlcNAc
Method in brief: as §1

MurNAc(b1-4)GlcNAc = target: MurNAc(b1-4)GlcNAc
Method in brief: as §1

Neu5Ac(a2-3)Gal = target: Neu5Ac(a2-3)Gal
Method in brief: as §1

[12] = target: Neu5Ac(a2-3)Gal(b1-3)GalNAc
Method in brief: as §1

[13] = target: Neu5Ac(a2-3)Gal(b1-3)GalNAc(b1-3)Gal(a1-4)Gal(b1-4)Glc
Method in brief: as §1

[14] = target: Neu5Ac(a2-3)Gal(b1-3)GalNAc(b1-4)Gal(b1-4)Glc
Method in brief: as §1

[15] = target: Neu5Ac(a2-3)Gal(b1-3)GalNAc(b1-4)[Neu5Ac(a2-3)]Gal(b1-4)Glc
Method in brief: as §1

[16] = target: Neu5Ac(a2-3)Gal(b1-3)GalNAc(b1-4)[Neu5Ac(a2-8)Neu5Ac(a2-3)]Gal(b1-4)Glc
Method in brief: as §1

[17] = target: Neu5Ac(a2-3)Gal(b1-3)GalNAc6S
Method in brief: as §1

[18] = target: Neu5Ac(a2-3)Gal(b1-3)GlcNAc
Method in brief: as §1

[19] = target: Neu5Ac(a2-3)Gal(b1-3)GlcNAc(b1-2)Man
Method in brief: as §1

[20] = target: Neu5Ac(a2-3)Gal(b1-3)GlcNAc(b1-2)Man(a1-3)[GlcNAc(b1-4)][Neu5Ac(a2-3)Gal(b1-3)GlcNAc(b1-2)Man(a1-6)]Man(b1-4)GlcNAc(b1-4)GlcNAc
Method in brief: as §1

[21] = target: Neu5Ac(a2-3)Gal(b1-3)GlcNAc(b1-2)Man(a1-3)[Neu5Ac(a2-3)Gal(b1-3)GlcNAc(b1-2)Man(a1-6)]Man(b1-4)GlcNAc(b1-4)GlcNAc
Method in brief: as §1

[22] = target: Neu5Ac(a2-3)Gal(b1-3)GlcNAc(b1-2)[Neu5Ac(a2-3)Gal(b1-3)GlcNAc(b1-4)]Man(a1-6)[Neu5Ac(a2-3)Gal(b1-3)GlcNAc(b1-2)Man(a1-3)]Man(b1-4)GlcNAc(b1-4)GlcNAc
Method in brief: as §1

[23] = target: Neu5Ac(a2-3)Gal(b1-3)GlcNAc(b1-3)Gal(b1-3)GlcNAc
Method in brief: as §1

[24] = target: Neu5Ac(a2-3)Gal(b1-3)GlcNAc(b1-3)Gal(b1-4)GlcNAc
Method in brief: as §1

[25] = target: Neu5Ac(a2-3)Gal(b1-3)GlcNAc(b1-3)GalNAc
Method in brief: as §1

[26] = target: Neu5Ac(a2-3)Gal(b1-3)GlcNAc(b1-6)GalNAc
Method in brief: as §1

[27] = target: Neu5Ac(a2-3)Gal(b1-3)GlcNAc6S
Method in brief: as §1

[28] = target: Neu5Ac(a2-3)Gal(b1-3)[Fuc(a1-4)]GlcNAc
Method in brief: as §1

[29] = target: Neu5Ac(a2-3)Gal(b1-3)[Fuc(a1-4)]GlcNAc(b1-3)Gal(b1-3)[Fuc(a1-4)]GlcNAc
Method in brief: as §1

[30] = target: Neu5Ac(a2-3)Gal(b1-3)[Fuc(a1-4)]GlcNAc(b1-3)Gal(b1-4)[Fuc(a1-3)]GlcNAc
Method in brief: as §1

[31] = target: Neu5Ac(a2-3)Gal(b1-3)[GlcNAc(b1-6)]GalNAc
Method in brief: as §1

[32] = target: Neu5Ac(a2-3)Gal(b1-3)[Neu5Ac(a2-6)]GalNAc
Method in brief: as §1

[33] = target: Neu5Ac(a2-3)Gal(b1-3)[Neu5Ac(a2-6)]GlcNAc(b1-3)[Fuc(a1-3)[Gal(b1-4)]GlcNAc(b1-6)]Gal(b1-4)Glc
Method in brief: as §1

B1: Mg1lysM (Mycosphaerella graminicola) (protein)
chain: QRNPITITPQFDCGATNSQQYVARSGDTLTKIAQEIYHDVVGVCDIARANNLADPNRIDAGTPYTIPINCQTYDRNSCL
[1]
  glycan array binding signal (z-score): -0.06
[2]
  glycan array binding signal (z-score): -0.068
[3]
  glycan array binding signal (z-score): -0.056
[4]
  glycan array binding signal (z-score): -0.085
[5]
  glycan array binding signal (z-score): -0.062
[6]
  glycan array binding signal (z-score): -0.078
Man(a1-3)[Man(a1-6)]Man
  glycan array binding signal (z-score): -0.059
[7]
  glycan array binding signal (z-score): -0.083
[8]
  glycan array binding signal (z-score): -0.076
[9]
  glycan array binding signal (z-score): -0.077
[10]
  glycan array binding signal (z-score): -0.076
[11]
  glycan array binding signal (z-score): -0.08
Man(a1-6)Man
  glycan array binding signal (z-score): -0.035
Man(b1-4)GlcNAc
  glycan array binding signal (z-score): -0.06
MurNAc(b1-4)GlcNAc
  glycan array binding signal (z-score): -0.059
Neu5Ac(a2-3)Gal
  glycan array binding signal (z-score): -0.083
[12]
  glycan array binding signal (z-score): -0.058
[13]
  glycan array binding signal (z-score): -0.054
[14]
  glycan array binding signal (z-score): -0.102
[15]
  glycan array binding signal (z-score): -0.086
[16]
  glycan array binding signal (z-score): -0.042
[17]
  glycan array binding signal (z-score): -0.073
[18]
  glycan array binding signal (z-score): -0.071
[19]
  glycan array binding signal (z-score): -0.056
[20]
  glycan array binding signal (z-score): -0.076
[21]
  glycan array binding signal (z-score): -0.047
[22]
  glycan array binding signal (z-score): 0.149
[23]
  glycan array binding signal (z-score): -0.081
[24]
  glycan array binding signal (z-score): -0.061
[25]
  glycan array binding signal (z-score): -0.069
[26]
  glycan array binding signal (z-score): -0.051
[27]
  glycan array binding signal (z-score): -0.05
[28]
  glycan array binding signal (z-score): -0.096
[29]
  glycan array binding signal (z-score): -0.073
[30]
  glycan array binding signal (z-score): -0.071
[31]
  glycan array binding signal (z-score): -0.083
[32]
  glycan array binding signal (z-score): -0.079
[33]
  glycan array binding signal (z-score): -0.075
